Laboratory results from paper PMC7665892, “Homology-guided identification of a conserved motif linking the antiviral functions of IFITM3 to its oligomeric state” (eLife, 2020).

Legend:
[1] = target: the molecule itself; assay: FRET or BRET; FRET index and FLIM of the donor YFP in living HEK293T cells transiently co-transfected with a YFP-tagged and an mCherry-tagged copy; free mCherry with the YFP copy as background; Fluorobrite DMEM
[2] = target: the molecule itself; assay: co-IP; HEK293T co-transfected with FLAG- and myc-tagged copies; lysis in 0.5% IPEGAL, 50 mM Tris pH 7.4, 150 mM NaCl, 1 mM EDTA; anti-FLAG M2 magnetic beads, 3 hr, 4°C; quantitative immunoblot with anti-myc
[3] = target: the molecule itself; assay: native gel or EMSA; blue native PAGE (4-16% Bis-Tris) of lysates of transfected HEK293T made with 1% digitonin; immunoblot with anti-FLAG

B1: IFITM3 G91L fused with YFP or mCherry at the amino terminus (natural protein)
chain: not shown
notes: interferon-induced transmembrane protein 3 (IFITM3), human, with G91L; Two differently tagged copies, each with only one of the two fluorescent proteins; also called G91L-YFP; G91L-mCherry; source: HEK293T, transiently transfected, in living cells; not shown: YFP (on the donor copy), N-terminal, kept; mCherry (on the acceptor copy), N-terminal, kept
For B1, the “decrease in YFP (donor) lifetime” value [1] was roughly 225 picoseconds.

B2: IFITM3 G95L fused with amino-terminal FLAG or myc (natural protein)
chain: not shown
notes: interferon-induced transmembrane protein 3 (IFITM3), human, with G95L; Two differently tagged copies, each with only one of the two tags; Blue native PAGE used the FLAG copy alone; also called G95L-FLAG; G95L-myc; source: HEK293T, transiently transfected, in lysate; not shown: FLAG (on the bait copy), N-terminal, kept; myc (on the prey copy), N-terminal, kept
In the case of B2, the “decrease of co-immunoprecipitation relative to WT” value [2] is reported as roughly 50% and the “decrease of the 480 kilodalton oligomer relative to WT” value [3] is reported as roughly 50%.

B3: IFITM3 G95L fused with YFP or mCherry at the amino terminus (natural protein)
chain: not shown
notes: interferon-induced transmembrane protein 3 (IFITM3), human, with G95L; Two differently tagged copies, each with only one of the two fluorescent proteins; Number and Brightness analysis used the mCherry copy alone; also called G95L-YFP; G95L-mCherry; source: HEK293T, transiently transfected, in living cells; not shown: YFP (on the donor copy), N-terminal, kept; mCherry (on the acceptor copy), …
In the case of B3, the “decrease in YFP (donor) lifetime” value [1] is reported as roughly 70 picoseconds.
